Out of some 360,000 compounds screened, about 7,500 (2.1%) were called active. The shares of active, inactive and inconclusive entries below differ from those in the screen. Calls follow the shape of the dose curve; as a rule, active = well fitted cell-killing curve with a large enough effect; inconclusive = small, poorly fitted or top-dose-only effect, or effect the other way, or another doubt; inactive = no such curve, though single readings can be large or run the other way. No potency is given beside an inconclusive call; the fits are too rough.
Experiment: qHTS for induction of synthetic lethality in tumor cells producing 2HG: qHTS for the HT-1080-IDH1KD cell line
Conditions: HT-1080 IDH1 knockdown viability, ATP luminescence, 48 h; series mostly up to 46.1 µM
Method in brief: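 In this qHTS, HT-1080 cells depleted of IDH1 are exposed for 48 h at 37 °C to compound titrations. Toxicity is scored from CellTiter-Glo luminescence, with DMSO as full viability and medium alone as none.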
For `Cn1c2c(c(=O)n(C)c1=O)C(C(F)(F)F)(C(F)(F)F)N=C(c1ccc(Cl)cc1)N2`, the Potency was active: 7.31 µM.
For `COc1cccc(/C=C(/C(=O)OCC(=O)NC2CCCC(C)C2C)c2ccccc2)c1` (configuration not stated), the Potency was inconclusive [cytotoxic, single point].
With `CCCCCCC(=O)N(O)C1CC(=O)N(c2ccc(F)cc2)C1=O` (configuration not stated) the Potency was inconclusive [cytotoxic, single point].
With `O=C(NNC(=O)c1ccccc1OCc1ccccc1)c1ccccc1F` the Potency was “inactive”.
With `Cc1ccc(S(=O)(=O)Nc2ccc3nc(N)sc3c2)cc1` the Potency was inconclusive [cytotoxic, single point].
In the case of `CCc1ccccc1N=C1S/C(=C/c2ccccc2OCC(=O)N2CCOCC2)C(=O)N1C`, the Potency is reported as inconclusive [cytotoxic, single point].
In the case of `CC(C)(C)C1CCC(=NNc2nc3ccccc3[nH]2)CC1` (configuration not stated), the Potency is reported as inconclusive [cytotoxic, single point].
With `CC1C(c2ccccc2)N(C)C(c2ccccc2)CC1(O)c1ccc(F)cc1` (configuration not stated) the Potency was inconclusive [cytotoxic, single point].
In the case of `CCOC(=O)c1cnc2ccc(C)cc2c1Sc1ccc(F)cc1`, the Potency is reported as inconclusive [cytotoxic, single point].
With `Cc1sc2nc(CN(Cc3ccccc3)C(=O)NC3CCCCC3)[nH]c(=O)c2c1C` the Potency was inconclusive [cytotoxic, single point].
With `COc1ccc(N=C2NC(=O)/C(=C/c3ccco3)S2)cc1` the Potency was “inactive”.
In the case of `CN1C[C@@H](CO)O[C@@H](n2cnc3c(N4CCN(CCO)CC4)ncnc32)C1`, the Potency is reported as inconclusive [rising, single point].
For `COC(=O)C1CCC(=O)N1C(c1ccc(OC)cc1)c1cc(OC)c(OC)c(OC)c1` (configuration not stated), the Potency was inconclusive [cytotoxic, full curve].
For `CCN(CC)S(=O)(=O)c1ccc2oc(C(=O)NCC3COc4ccccc4O3)c(C)c2c1` (configuration not stated), the Potency was inconclusive [cytotoxic, single point].
With `C/C(=N/NC(=O)c1ccc(NC(=O)c2ccc(F)cc2)cc1)c1ccccc1` the Potency was inconclusive [cytotoxic, single point].
With `CCn1c2c(c3cc(Br)ccc31)CCC/C2=N\O` the Potency was inconclusive [cytotoxic, single point].
In the case of `CCOC(=O)C1=C[C@@H](C(C)(C)C)N(S(=O)(=O)c2ccc(C)cc2)[C@H]1c1ccc(F)cc1`, the Potency is reported as inconclusive [cytotoxic, single point].
In the case of `CN1C(=O)C(CC(=O)Nc2ccccc2F)N(NC(=O)c2ccc(Br)cc2)C1=S` (configuration not stated), the Potency is reported as “inactive”.
For `CN(CC(=O)Nc1ccc(Cl)c(C(F)(F)F)c1)C(=O)c1ccc(S(=O)(=O)N2CCOCC2)cc1`, the Potency was active: 10.3 µM.
With `Cc1ccc(OCC(O)CN2CCN(CC(O)COC(C)C)CC2)c(C(C)(C)C)c1` (configuration not stated) the Potency was inconclusive [cytotoxic, single point].
With `CCOc1ccc2c(c1)S/C(=C\c1cccs1)C(=O)N2` the Potency was inconclusive [cytotoxic, single point].
For `C(=C\c1ccccc1)/CNn1cnnc1`, the Potency was inconclusive [cytotoxic, single point].
With `CCc1ccc2nc(N(CCCN(C)C)C(=O)c3ccc(S(=O)(=O)N4CCCc5ccccc54)cc3)sc2c1` the Potency was inconclusive [cytotoxic, single point].
In the case of `CCOc1cc(/C=C\[N+](=O)[O-])ccc1OCC(=O)N1CCOCC1`, the Potency is reported as active: 18.4 µM.
In the case of `CCc1ccc(-c2nc(CN3CCC(C(=O)N4CCN(c5ccccn5)CC4)CC3)c(C)o2)cc1`, the Potency is reported as inconclusive [cytotoxic, single point].
For `COc1ccccc1C(NC(=O)C1CCN(CCOc2ccc(Cl)cc2)CC1)c1ccccn1` (configuration not stated), the Potency was inconclusive [cytotoxic, single point].
For `CSc1cccc(NC(=O)CCCOc2ccccc2)c1`, the Potency was inconclusive [cytotoxic, single point].
With `Cc1ccccc1C(=O)Nc1ccc(-c2nc3ccc(C(=O)c4ccccc4)cc3[nH]2)cc1` the Potency was inconclusive [cytotoxic, full curve].
In the case of `O=C(CNCc1ccccc1)Nc1ccc(Oc2ccccc2)cc1`, the Potency is reported as active: 6.51 µM.
For `O=C(CNC(=O)c1ccc(F)cc1)N/N=C/c1cc(Br)ccc1OCc1ccccc1`, the Potency was “inactive”.
With `O=C(CSc1nc2ccccc2o1)Nc1ccccc1N1CCCCCC1` the Potency was “inactive”.
For `COc1ccc(-c2cc(-c3cc(C)ccc3O)[nH]n2)cc1`, the Potency was inconclusive [cytotoxic, single point].
With `NS(=O)(=O)c1ccc(NC(=O)COC(=O)c2cn(-c3ccccc3)nc2-c2ccc(F)cc2)cc1` the Potency was inconclusive [cytotoxic, single point].
With `O=C(NNc1nc2ccc(Cl)cc2s1)c1cc(-c2cccs2)nc2ccccc12` the Potency was inconclusive [cytotoxic, single point].
In the case of `O=C(N/N=C/c1ccc(O)cc1)c1ccc(NC(=O)c2ccccc2Br)cc1`, the Potency is reported as inconclusive [cytotoxic, single point].
With `O=C(Nc1nc(-c2ccccc2)cs1)c1ccccc1NS(=O)(=O)c1ccc(F)cc1` the Potency was inconclusive [cytotoxic, partial curve].
With `C=CCc1ccc(OCCCCN2CCC(C)CC2)c(OC)c1` the Potency was “inactive”.
For `CCCCN(CCCC)S(=O)(=O)c1ccc(C(=O)Nc2nnc(COC)o2)cc1`, the Potency was active: 11.6 µM.
With `Cc1nc(C(F)(F)F)ccc1C(=O)N1CCC1(C)C(=O)NS(=O)(=O)c1ccc(C#N)cc1` (configuration not stated) the Potency was inconclusive [rising, single point].
In the case of `Cc1cc2ncn(CCCCOc3ccccc3)c2cc1C`, the Potency is reported as inconclusive [cytotoxic, single point].
With `COc1cccc(C(=O)Nn2c(-c3cccs3)nc3ccccc3c2=O)c1OC` the Potency was “inactive”.
In the case of `C/C(=N\Nc1ccc(C(=O)O)cc1)c1ccc2c(c1)Nc1ccccc1S2`, the Potency is reported as inconclusive [cytotoxic, single point].
Potency is read from the fitted curve at half-maximal effect; tags tell the direction and shape of the fitted curve.
